In PubChem BioAssay AID2147 (National Center for Advancing Translational Sciences (NCATS), 2009):
Several values for one entry are separate records, joined by “and”; a condition that tells them apart may be missing. Equal values may be shown once. Among all 230,000 compounds or so, about 3,600 (1.6%) were called active. Inconclusive results, whose numbers are uncertain, are shown with a selection of clear calls. The call rests on the fitted dose curve; in most records, active means well fitted inhibition curve with a large enough effect (not every such curve was filed as active); inconclusive means small, poorly fitted or top-dose-only effect, or another doubt; inactive means no such curve, though single readings can be large or run the other way. Potencies of inconclusive entries are doubtful fits and often do not repeat.

Each molecule was assayed against Lysine-specific demethylase 4E (Homo sapiens) (UniProt B2RXH2) (assay: qHTS Assay for Inhibitors of Human Jumonji Domain Containing 2E (JMJD2E)). Details: JMJD2E catalytic domain, FDH-coupled NADH fluorescence (FDH is formaldehyde dehydrogenase); series mostly up to 57.1 µM.
Further: nearly all actives have a fitted effect of over 50% in size.
Potency means the concentration at half of the fitted maximal effect; tags describe the fitted curve by direction and shape.

Sequence of UniProt B2RXH2 (B2RXH2 whole entry, looked up, the tested form may be a part): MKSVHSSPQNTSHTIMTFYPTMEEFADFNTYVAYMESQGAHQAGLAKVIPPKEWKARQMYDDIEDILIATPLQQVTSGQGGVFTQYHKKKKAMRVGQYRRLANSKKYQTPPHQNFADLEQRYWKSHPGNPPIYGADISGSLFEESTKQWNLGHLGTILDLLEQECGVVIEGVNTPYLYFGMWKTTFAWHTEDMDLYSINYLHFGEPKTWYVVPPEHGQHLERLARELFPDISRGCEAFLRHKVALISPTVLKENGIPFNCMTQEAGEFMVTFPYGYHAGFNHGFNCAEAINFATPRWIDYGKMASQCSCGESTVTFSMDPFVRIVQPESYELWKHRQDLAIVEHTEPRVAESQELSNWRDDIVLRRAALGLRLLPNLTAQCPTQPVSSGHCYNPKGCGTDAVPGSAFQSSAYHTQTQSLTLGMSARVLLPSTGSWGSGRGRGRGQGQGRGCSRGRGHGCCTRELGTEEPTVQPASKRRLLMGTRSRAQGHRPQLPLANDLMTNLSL

| Structure (SMILES) | Potency |
| --- | --- |
| COc1cc2[nH]c(=O)c(C(=O)NCCCN3CCCCC3)c(O)c2cc1OC | inconclusive: 31.6 µM [inhibitor, partial curve] |
| O=C(CCC(=O)NNC(=O)Nc1cccc(Cl)c1)NCc1ccccc1 | inconclusive: 20 µM [inhibitor, single point] |
| NC(=O)COC(=O)c1ccc(-c2ccc(O)cc2)cc1 | inconclusive: 31.6 µM [inhibitor, partial curve] |
| CCCCNC(=O)c1ccccc1NS(=O)(=O)c1ccc2c(c1)OCCO2 | inconclusive: 39.8 µM [inhibitor, single point] |
| CCOC(=O)c1[nH]c2ccc(OC)cc2c1NS(=O)(=O)c1ccc(OC)cc1OC | inconclusive: 39.8 µM [inhibitor, single point] |
| CCOC(=O)c1ccc(Oc2c(C)oc3c(CN4CCN(C)CC4)c(O)ccc3c2=O)cc1 | inconclusive: 28.2 µM [inhibitor, partial curve] |
| Cc1ccc(C)c(Nc2c(F)c(F)c(F)c(F)c2C(=O)O)c1 | inactive |
| Cc1ccc(C(=O)NNC(=S)Nc2cccc(Cl)c2Cl)cc1[N+](=O)[O-] | inactive |
| CCN1CCN(C(=S)NCC(C)C)CC1 | inconclusive: 35.5 µM [inhibitor, single point] |
| CCOC(=O)c1c(-c2ccc(C)cc2)csc1NC(=O)C1CCCO1 (stereo unspecified) | inactive |
| COC(=O)c1cn(C)c2ccc(S(=O)(=O)N3CC(C)CC(C)C3)cc2c1=O (stereo unspecified) | inconclusive: 39.8 µM [inhibitor, single point] |
| c1ccc(SCCOCCn2cncn2)cc1 | inconclusive: 28.2 µM [inhibitor, single point] |
| CCOC(=O)c1cc2c(C(F)(F)F)cc(-c3cccnc3)nc2o1 | inconclusive: 35.5 µM [inhibitor, single point] |
| Cc1ccn2cc(-c3ccc(S(=O)(=O)N4CCOCC4)cc3)nc2c1 | inconclusive: 2 µM [inhibitor, partial curve] |
| COC(=O)C1C(O)=C(C=Nc2ccc3ccccc3c2)C(=O)CC1(C)C (stereo unspecified) | inactive |
| Cc1ccc2nc(-c3cccc(Br)c3)cc(C(=O)Nn3cnnc3)c2c1 | inconclusive: 39.8 µM [inhibitor, single point] |
| Cc1cc(C(=O)OCC(=O)Nc2cc(S(=O)(=O)N(C)C)ccc2C)c2ccccc2n1 | inconclusive: 22.4 µM [inhibitor, partial curve] |
| Nc1nc2n(n1)C1(CCCCC1)C1=C(CCCC1)N2 | inactive |
| C[C@H]1/C=C\CC(=O)NCc2cccc(c2)CNC(=O)N[C@H]1c1ccccc1 | inactive |
| CC1=Nc2nc(N3CCCCC3)c(C#N)c3c4c(nc(c23)N1)N(c1ccc(C(C)C)cc1)C(=O)C4 | inconclusive: 12.6 µM [inhibitor, partial curve] |
| CC(/C=C1\SC(=S)N(CCCC(=O)Nc2ccc(C(=O)O)c(O)c2)C1=O)=C\c1ccccc1 | inactive |
| CCOC(=O)c1ccc(NC(=O)CCc2nc(-c3ccc(C)cc3)no2)cc1 | inactive |
| CCCNC(=O)c1nc(C)n(-c2cc(Cl)ccc2Cl)n1 | inactive |
| COC(=O)c1ccc(COC(=O)c2ccc(-n3cnnn3)cc2)o1 | inactive |

| Structure (SMILES) | Potency |
| --- | --- |
| S=c1[nH]c(-c2ccccc2)cn1/N=C/c1ccc(Br)cc1 | inconclusive: 39.8 µM [inhibitor, single point] |
| COc1ccc(NC(=O)CN2CCN(C(=S)NC3CCCC3)CC2)cc1 | inconclusive: 39.8 µM [inhibitor, single point] |
| CCN(CC)CCN(Cc1cc2cc3c(cc2[nH]c1=O)OCO3)C(=S)NCC1CCCO1 (stereo unspecified) | inconclusive: 25.1 µM [inhibitor, partial curve] |
| O=C(COc1ccc2ccccc2c1Br)NC(=S)Nc1cccc(CO)c1 | inactive |
| COc1ccc2cc(C3CC(c4ccco4)=NN3S(C)(=O)=O)c(Cl)nc2c1 (stereo unspecified) | inactive |
| O=C(C1=NN[C@@H]2C(=O)N(c3cccc(F)c3)C(=O)[C@H]12)c1cnccn1 | inconclusive: 39.8 µM [inhibitor, single point] |
| O=C(NCc1ccccn1)c1cc2ccccc2oc1=O | inconclusive: 28.2 µM [inhibitor, partial curve] |
| COc1ccc(C(C(=O)NC2CCCCC2)N(CC2CCCO2)C(=O)C2COc3ccccc3O2)cc1OC (stereo unspecified) | inactive |
| CCOC(=O)C1CCc2sc(N)c(C#N)c21 (stereo unspecified) | inconclusive: 35.5 µM [inhibitor, single point] |
| CC1CCCN(c2oc(-c3cccc4ccccc34)nc2C#N)C1 (stereo unspecified) | inconclusive: 35.5 µM [inhibitor, partial curve] |
| CCN1CCN(C(=O)c2cc3c(=O)n4ccccc4nc3n2Cc2ccccc2)CC1 | inconclusive: 15.8 µM [inhibitor, partial curve] |
| O=C1/C(=C/C=C/c2ccco2)SC(=S)N1c1ccc(O)cc1 | active: 14.1 µM |
| C=C(C(=O)OCC)C(=O)c1ccccc1 | inactive |
| CC(=NCCc1c(C)[nH]c2ccc(OC(F)(F)F)cc12)C1=C(O)CC(c2ccccc2)CC1=O (stereo unspecified) | inactive |
| Cc1ccc(-n2nc(C)c(/C=N/NC(=O)c3cccs3)c2Cl)cc1 | inconclusive: 39.8 µM [inhibitor, single point] |
| CCOC(=O)c1sc(/N=C/c2c(C)[nH]n(-c3ccccc3)c2=O)c(C#N)c1C | inactive |
| Cc1ccc(C(=O)N/C(=C\c2ccc(Cl)cc2)C(=O)NCCCN2CCOCC2)cc1 | inactive |
| COc1cc(OC)cc(C(=O)N2CCN(Cc3cccc(F)c3)CC2)c1 | inconclusive: 25.1 µM [inhibitor, single point] |
| O=C(CSc1nnc(-c2ccccn2)n1Cc1ccccc1)N1CCCC1 | inactive |
| Cc1c(C2=CCN(S(=O)(=O)c3ccc(Br)cc3)CC2)c2ccccc2n1C | active: 15.8 µM |
| Cc1ccccc1S(=O)(=O)Nc1nc2ccccc2nc1N1CCOCC1 | inconclusive: 28.2 µM [inhibitor, single point] |
| COc1ccc(-n2c(O)c(/C=N/NS(=O)(=O)c3cc(C)ccc3C)c3ccccc3c2=O)cc1OC | inconclusive: 28.2 µM [inhibitor, partial curve] |
| CSc1nc(-c2ccccc2)c(C#N)c(=O)n1C | inconclusive: 35.5 µM [inhibitor, single point] |
| COc1ccc(CNC(=O)C2CCC(CNc3c(N4CCCCC4)c(=O)c3=O)CC2)cc1 (stereo unspecified) | inactive |

| Structure (SMILES) | Potency |
| --- | --- |
| Nc1c(-c2ccccc2)nc(Cl)nc1-c1ccccc1 | inconclusive: 2.51 µM [inhibitor, partial curve] |
| CN1C(=O)c2ccc(NC(=O)CCS(=O)(=O)c3ccccc3)cc2C1=O | inconclusive: 28.2 µM [inhibitor, partial curve] |
| C(=C\c1ccco1)/C1=NN(c2ccccc2)C(c2ccco2)C1 (stereo unspecified) | inconclusive: 15.8 µM [inhibitor, partial curve] |
| COc1ccccc1OCC(=O)Nc1ccc(N2CCCCC2)cc1 | inactive |
| CCOC(=O)C1CCN(c2nc3cc(OC)ccc3cc2C#N)CC1 | inconclusive: 35.5 µM [inhibitor, partial curve] |
| CCOc1ccc(NC(=O)CSc2nc(N)c(-c3ccccc3)c(=O)[nH]2)cc1 | inconclusive: 28.2 µM [inhibitor, partial curve] |
| CCc1ccc2oc(-c3cccc(N)c3)nc2c1 | inconclusive: 28.2 µM [inhibitor, partial curve] |
| CC(NCc1ccccc1)C1COc2ccccc2O1 (stereo unspecified) | inactive |
| CN1c2ccsc2/C(=N/Nc2ccc(F)cc2)CS1(=O)=O | inactive |
| OCCN(CCO)c1ccc2ccccc2c1 | inconclusive: 15.8 µM [inhibitor, partial curve] |
| Cc1ccccc1-c1nc(-c2cccnc2)no1 | inconclusive: 39.8 µM [inhibitor, single point] |
| NNC(=S)Nc1ccc(S(=O)(=O)N2CCOCC2)cc1 | inactive |
| CC(C)CC(=O)N1CCN(c2ccc([N+](=O)[O-])cc2Cl)CC1 | inactive |
| CCC1(C)Cc2ccccc2-c2nc3n(c(=O)c21)CC(C(=O)O)S3 (stereo unspecified) | inconclusive: 35.5 µM [inhibitor, single point] |
| CCOc1ccc(NC(=O)c2ccccc2O)cc1 | inconclusive: 39.8 µM [inhibitor, single point] |
| COc1ccc([N+](=O)[O-])cc1/C=N/NC(=O)/C(=C\c1cccs1)NC(=O)c1ccccc1 | inconclusive: 6.31 µM [inhibitor, single point] |
| COC(=O)c1sc(NC(=O)/C=C/c2ccccc2Cl)nc1C | inconclusive: 8.91 µM [inhibitor, single point] |
| COc1ccc(/C=C/C(=O)NCCNC(=O)c2ccccc2)cc1OC | inconclusive: 31.6 µM [inhibitor, partial curve] |
| CC(=O)Nc1nonc1-c1nc2ccccc2n1CCC#N | inconclusive: 28.2 µM [inhibitor, partial curve] |
| COc1ccc(-n2nnc3c(SCC(=O)c4ccccc4)ncnc32)cc1 | inconclusive: 39.8 µM [inhibitor, single point] |
| COc1ccc(NC(=O)CSc2cc(C)nc3c(-c4ccccc4)cnn23)cc1 | inconclusive: 39.8 µM [inhibitor, single point] |
| COc1cc2c(cc1OC)-c1c(OC)c(OC)cc3ccnc(c13)C2=O | inconclusive: 22.4 µM [inhibitor, single point] and inconclusive: 15.8 µM [inhibitor, partial curve, poor fit] |
| COCCCNC(=O)Cn1c(=O)n(CCCCCC(=O)Nc2ccccc2)c(=O)c2sccc21 | inconclusive: 39.8 µM [inhibitor, single point] |
